According to ChEMBL document CHEMBL5050857, “Mettl3 modulators” (2021):

Assays:
[1] = molecular target: T1, N6-adenosine-methyltransferase catalytic subunit (Homo sapiens, UniProt Q86U44); test: Inhibition of METTL3 (unknown origin) using UCUGGACUAAA-biotin and 3H-SAM as substrates preincubated for 5 mins followed by substrate addition incubated for 30 mins by TopCount scintillation counting method
[2] = molecular target: T1, N6-adenosine-methyltransferase catalytic subunit; test: Inhibition of METTL3-mediated m6A methylation in human MOLM-13 cells assessed as reduction in mRNA level measured after 24 hrs by LC-MS/MS analysis; format: cell-based
MOLM-13 [3] = test: Antiproliferative activity against human MOLM-13 cells after 48 hrs by Cell Titer-Glo assay; format: functional, cell-based; settings: MOLM-13, 48 h
MOLM-13 [4] = test: Antiproliferative activity against human MOLM-13 cells after 96 hrs by Cell Titer-Glo assay; format: functional, cell-based; settings: MOLM-13, 96 h
[5] = Inhibition of METTL16 (unknown origin) using CGAUACAGAGAAGAUUAGCAUACGCAAAUUCGUGAAGCG-biotin and SAM as substrates preincubated for 5 mins followed by substrate addition incubated for 220 mins by TopCount scintillation counting method; design: species or system Homo sapiens

T1 sequence (Q86U44 whole entry): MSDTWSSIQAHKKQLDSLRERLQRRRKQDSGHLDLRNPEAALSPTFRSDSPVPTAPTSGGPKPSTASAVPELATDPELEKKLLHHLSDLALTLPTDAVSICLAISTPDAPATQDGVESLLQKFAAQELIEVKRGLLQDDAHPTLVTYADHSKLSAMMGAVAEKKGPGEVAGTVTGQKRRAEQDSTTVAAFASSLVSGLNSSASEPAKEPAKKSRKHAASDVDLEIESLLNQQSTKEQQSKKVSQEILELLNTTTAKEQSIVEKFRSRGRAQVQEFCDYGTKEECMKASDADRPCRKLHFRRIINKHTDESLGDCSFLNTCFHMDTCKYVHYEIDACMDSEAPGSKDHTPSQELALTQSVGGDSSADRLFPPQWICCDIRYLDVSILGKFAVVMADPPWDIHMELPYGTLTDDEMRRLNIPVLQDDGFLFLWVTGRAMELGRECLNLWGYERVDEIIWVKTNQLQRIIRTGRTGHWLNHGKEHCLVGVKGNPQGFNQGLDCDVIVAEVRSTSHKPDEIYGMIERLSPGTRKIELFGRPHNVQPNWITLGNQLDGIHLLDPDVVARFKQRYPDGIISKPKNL

IC50 [1] [nM]	IC50 [2] [nM]	IC50 (MOLM-13 [3]) [nM]	IC50 (MOLM-13 [4]) [nM]	IC50 [5] [nM]	Compound
< 10	1000	1000	< 1000	–	CNc1ccc2ccc(OC[C@H]3O[C@@H](n4cc(C5CCCC5)c5c(N)ncnc54)C[C@@H]3O)cc2n1
< 10	1000	1000	< 1000	≥ 1000	CNc1ccc2ccc(OC[C@H]3O[C@@H](n4cc(Br)c5c(N)ncnc54)[C@H](O)[C@@H]3O)cc2n1
< 10	1000	1000	< 1000	–	CNc1ccc2ccc(CC[C@H]3C[C@@H](n4cc(C)c5c(N)ncnc54)[C@H](O)[C@@H]3O)cc2n1
≤ 100	1000	≥ 10000	–	–	Nc1ncnc2c1ccn2[C@@H]1O[C@H](COc2ccc3ccc(N4CCCC4)nc3c2)[C@@H](O)[C@H]1O
< 10	1000	1000	1000	–	CNc1ccc2ccc(OC[C@H]3O[C@@H](n4cc(Cl)c5c(N)ncnc54)[C@@H](F)[C@@H]3O)cc2n1
< 10	1000	1000	< 1000	≥ 1000	CNc1ccc2ccc(OC[C@H]3O[C@@H](n4cc(Cl)c5c(N)ncnc54)[C@H](O)[C@@H]3O)cc2n1
< 10	1000	–	–	–	CNc1ccc2ccc(OC[C@H]3O[C@@H](n4cc(C5CCCCC5)c5c(N)ncnc54)[C@H](O)[C@@H]3O)cc2n1
< 10	1000	≥ 10000	–	≥ 1000	CNc1ccc2ccc(OC[C@H]3O[C@@H](n4cc(CC5CCCC5)c5c(N)ncnc54)[C@H](O)[C@@H]3O)cc2n1
< 10	1000	–	–	≥ 1000	CNc1ccc2ccc(CC[C@H]3C[C@@H](n4cc(CO)c5c(N)ncnc54)[C@H](O)[C@@H]3O)cc2n1
≤ 1000	–	–	≥ 10000	≥ 1000	Nc1ccnc2cc(OC[C@H]3O[C@@H](n4cc(Br)c5c(N)ncnc54)[C@@H](F)[C@@H]3O)ccc12
< 10	1000	1000	< 1000	–	CNc1ccc2ccc(OC[C@H]3O[C@@H](n4cc(Br)c5c(N)ncnc54)[C@@H](F)[C@@H]3O)cc2n1
< 10	< 1000	1000	1000	–	Nc1ncnc2c1c([C@H]1CCCO1)cn2[C@@H]1O[C@H](COc2ccc3ccc(N4CCC4)nc3c2)[C@@H](O)[C@@H]1F
< 10	1000	1000	1000	≥ 1000	CNc1ccc2ccc(OC[C@H]3O[C@@H](n4cc(C5CCCC5)c5c(N)ncnc54)[C@@H](F)[C@@H]3O)cc2n1
≥ 1000	–	–	≥ 10000	≥ 1000	CNc1ccc2cnc(OC[C@H]3O[C@@H](n4cc(Br)c5c(N)ncnc54)[C@H](O)[C@@H]3O)nc2n1
< 10	1000	1000	< 1000	–	CNc1ccc2ccc(CC[C@H]3C[C@@H](n4cc(C5CCCC5)c5c(N)ncnc54)[C@H](O)[C@@H]3O)cc2n1
< 10	1000	1000	< 1000	≥ 1000	CNc1ccc2ccc(OC[C@H]3O[C@@H](n4cc(CC5CC5)c5c(N)ncnc54)[C@@H](F)[C@@H]3O)cc2n1
< 10	1000	1000	< 1000	–	CNc1ccc2ccc(CC[C@H]3C[C@@H](n4cc(C5CCCCC5)c5c(N)ncnc54)[C@H](O)[C@@H]3O)cc2n1
< 10	1000	–	–	–	CNc1ccc2ccc(OC[C@H]3O[C@@H](n4ccc5c(N)ncnc54)[C@@H](F)[C@@H]3O)cc2n1
< 10	1000	1000	< 1000	≥ 1000	CNc1ccc2ccc(CC[C@H]3O[C@@H](n4cc(C5CCCC5)c5c(N)ncnc54)[C@H](O)[C@@H]3O)cc2n1
≤ 100	≥ 10000	≥ 10000	1000	–	CN(C)c1ccc2ccc(OC[C@H]3O[C@@H](n4ccc5c(N)ncnc54)[C@H](O)[C@@H]3O)cc2n1
< 10	1000	1000	1000	–	CCNc1ccc2ccc(OC[C@H]3O[C@@H](n4cc(Cl)c5c(N)ncnc54)[C@@H](F)[C@@H]3O)cc2n1
< 10	1000	≥ 10000	1000	–	CNc1ccc2ccc(OC[C@H]3O[C@@H](n4cc(Cl)c5c(N)ncnc54)C[C@@H]3O)cc2n1
≤ 100	≥ 10000	≥ 10000	1000	–	CN(C)c1ccc2ccc(CC[C@H]3C[C@@H](n4ccc5c(N)ncnc54)[C@H](O)[C@@H]3O)cc2n1
< 10	1000	1000	1000	–	CCNc1ccc2ccc(CC[C@H]3C[C@@H](n4cc(C5CCCC5)c5c(N)ncnc54)[C@H](O)[C@@H]3O)cc2n1
< 10	1000	< 1000	< 1000	≥ 1000	CNc1ccc2ccc(OC[C@H]3O[C@@H](n4cc(C5CC5)c5c(N)ncnc54)[C@@H](F)[C@@H]3O)cc2n1
< 10	1000	1000	< 1000	–	CNc1ccc2ccc(OC[C@H]3O[C@@H](n4cc([C@H]5CCCO5)c5c(N)ncnc54)[C@@H](F)[C@@H]3O)cc2n1
< 10	1000	1000	1000	–	CN(C)c1ccc2ccc(OC[C@H]3O[C@@H](n4cc(C5CCCC5)c5c(N)ncnc54)[C@H](O)[C@@H]3O)cc2n1
< 10	< 1000	1000	< 1000	≥ 1000	CNc1ccc2ccc(OC[C@H]3O[C@@H](n4cc(C5CCCC5)c5c(N)ncnc54)[C@H](O)[C@@H]3O)cc2n1
≥ 1000	≥ 10000	≥ 10000	≥ 10000	–	Nc1ncnc2c1ccn2[C@@H]1C[C@H](CCc2ccccn2)[C@@H](O)[C@H]1O

Compound	IC50 [1] [nM]	IC50 [2] [nM]	IC50 (MOLM-13 [3]) [nM]	IC50 (MOLM-13 [4]) [nM]	IC50 [5] [nM]
Cn1ccc(-c2cn([C@@H]3C[C@H](COc4ccc5ccc(N6CCC6)nc5c4)[C@@H](O)C3)c3ncnc(N)c23)n1	< 10	1000	–	–	–
CCNc1ccc2ccc(OC[C@H]3O[C@@H](n4cc(-c5cn(C)cn5)c5c(N)ncnc54)[C@@H](F)[C@@H]3O)cc2n1	< 10	1000	1000	< 1000	≥ 1000
CNc1ccc2ccc(OC[C@H]3O[C@@H](n4cc(-c5cn(C)cn5)c5c(N)ncnc54)[C@@H](F)[C@@H]3O)cc2n1	< 10	1000	1000	–	≥ 1000
CNc1ccc2ccc(OC[C@H]3O[C@@H](n4cc(-c5ccccn5)c5c(N)ncnc54)[C@@H](F)[C@@H]3O)cc2n1	< 10	1000	–	–	–
Cn1ccc(-c2cn([C@H]3C[C@H](O)[C@@H](COc4ccc5ccc(NC6CC6)nc5c4)O3)c3ncnc(N)c23)n1	< 10	1000	1000	< 1000	–
CNc1ccc2ccc(OC[C@H]3O[C@@H](n4cc(-c5ncco5)c5c(N)ncnc54)[C@@H](F)[C@@H]3O)cc2n1	< 10	< 1000	< 1000	< 1000	–
Cn1ccc(-c2cn([C@@H]3C[C@H](CCc4ccc5ccc(N6CCC6)nc5c4)[C@@H](O)C3)c3ncnc(N)c23)n1	< 10	1000	–	< 1000	–
CNc1ccc2ccc(OC[C@H]3O[C@@H](n4cc(-c5ccn(C)n5)c5c(N)ncnc54)[C@@H](F)[C@@H]3O)cc2n1	< 10	< 1000	< 1000	< 1000	≥ 1000
Cc1ccn(-c2cn([C@@H]3O[C@H](COc4ccc5ccc(N6CCC6)nc5c4)[C@@H](O)[C@@H]3F)c3ncnc(N)c23)n1	< 10	1000	–	1000	–
CNc1ccc2ccc(OC[C@H]3O[C@@H](n4cc(-c5cc[nH]n5)c5c(N)ncnc54)[C@@H](F)[C@@H]3O)cc2n1	< 10	1000	< 1000	< 1000	–
Cn1ccc(-c2cn([C@@H]3O[C@H](COc4ccc5ccc(N6CC(O)C6)nc5c4)[C@@H](O)[C@@H]3F)c3ncnc(N)c23)n1	< 10	1000	1000	1000	–
CCc1cc(NC)c2ccc(OC[C@H]3O[C@@H](n4cc(-c5ccn(C)n5)c5c(N)ncnc54)[C@@H](F)[C@@H]3O)cc2n1	< 10	≥ 10000	≥ 10000	–	–
Cn1ccc(-c2cn([C@@H]3O[C@H](COc4ccc5ccc(N6CCC6)nc5c4)[C@@H](O)[C@@H]3F)c3ncnc(N)c23)n1	–	–	< 1000	< 1000	≥ 1000
